# Data published in publication PMC4336329 (PLoS ONE, 2015).
# The campaign covered roughly 310,000 compounds. About 2,200 (0.71%) showed an effect of 50% or more. The effect is printed as a negative number. The list shows a part of the results.
# Target: human ether-à-go-go-related gene (hERG) potassium channel (human, UniProt Q12809)
# Experiment: primary screen, population patch clamp on CHO cells stably expressing hERG
# Chain of human ether-à-go-go-related gene (hERG) potassium channel (Q12809 whole entry, looked up): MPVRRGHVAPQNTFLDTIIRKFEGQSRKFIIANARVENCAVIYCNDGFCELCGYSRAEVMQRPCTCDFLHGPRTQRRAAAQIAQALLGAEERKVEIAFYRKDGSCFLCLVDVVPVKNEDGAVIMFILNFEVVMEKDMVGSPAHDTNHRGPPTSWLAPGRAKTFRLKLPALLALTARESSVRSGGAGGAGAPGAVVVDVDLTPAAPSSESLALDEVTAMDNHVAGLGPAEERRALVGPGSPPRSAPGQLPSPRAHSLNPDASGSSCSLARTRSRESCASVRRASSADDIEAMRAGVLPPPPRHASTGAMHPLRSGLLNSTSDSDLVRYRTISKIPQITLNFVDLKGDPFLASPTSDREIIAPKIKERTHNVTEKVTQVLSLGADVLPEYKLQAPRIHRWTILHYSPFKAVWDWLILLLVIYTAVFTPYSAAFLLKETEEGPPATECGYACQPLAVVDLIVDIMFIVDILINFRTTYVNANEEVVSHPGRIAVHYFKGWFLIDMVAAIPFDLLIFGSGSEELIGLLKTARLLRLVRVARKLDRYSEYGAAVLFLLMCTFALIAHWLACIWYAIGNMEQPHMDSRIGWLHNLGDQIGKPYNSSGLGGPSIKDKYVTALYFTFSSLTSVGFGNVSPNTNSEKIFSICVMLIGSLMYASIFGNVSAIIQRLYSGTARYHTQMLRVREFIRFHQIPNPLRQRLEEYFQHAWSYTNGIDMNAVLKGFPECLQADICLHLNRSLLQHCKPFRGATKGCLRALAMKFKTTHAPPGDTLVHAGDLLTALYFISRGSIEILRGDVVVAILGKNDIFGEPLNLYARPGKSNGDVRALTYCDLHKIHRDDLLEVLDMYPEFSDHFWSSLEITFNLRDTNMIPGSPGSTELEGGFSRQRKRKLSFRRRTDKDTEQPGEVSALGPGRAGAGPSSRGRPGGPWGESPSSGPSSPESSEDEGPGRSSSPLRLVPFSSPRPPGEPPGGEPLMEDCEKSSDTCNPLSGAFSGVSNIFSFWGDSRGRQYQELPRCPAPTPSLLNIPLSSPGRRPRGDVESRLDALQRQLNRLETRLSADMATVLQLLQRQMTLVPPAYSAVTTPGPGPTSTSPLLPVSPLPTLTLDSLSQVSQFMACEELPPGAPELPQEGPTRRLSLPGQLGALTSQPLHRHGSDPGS
row,Compound,"hERG current change (%, negative = inhibition) at 1uM"
1,COc1cccc(C2CC(C(F)(F)F)n3ncc(C(=O)NCc4ccco4)c3N2)c1 (centres unmarked),3.2%
2,Cc1cnc(NC(=O)c2sc(Nc3ccccc3)nc2N)o1,14.9%
3,Cc1n[nH]c(=O)c2c1nnn2Cc1ccc(F)cc1,7.15%
4,O=C1NCCCC1C(=O)N1CCN(C(=O)c2ccco2)CC1 (centres unmarked),-3.95%
5,C[C@H](O)CC(=O)O,16.9%
6,CC(NC(=O)Nc1ccc(Cl)c(Cl)c1)C(c1ccccc1)N1CCOCC1 (centres unmarked),0.716%
7,O=C(O)C(=O)O.c1ccc(COc2ccc(OCCCCN3CCCC3)cc2)cc1,-28.2%
8,COc1ccc(N2CCN(C(=O)CNC(=O)c3cccc(Br)c3)CC2)cc1,10.7%
9,O=C(c1ccccc1CCc1ccccc1)N1CCN(c2ccccn2)CC1,1.7%
10,COc1cccc(OC)c1-c1nnc(-c2cn(C)c3ccccc23)o1,8.08%
11,CCOCCC(=O)Nc1nnc(CCc2ccccc2)s1,3.01%
12,Cc1cccc(N2CCN(C(=O)c3cc(S(=O)(=O)N4CCOCC4)cn3C)CC2C)c1 (centres unmarked),16.4%
13,N#C/C(=C(/O)c1ccc([N+](=O)[O-])cc1)c1nnc2n1CCCCC2,7.72%
14,CCOC(=O)c1cccc(NC(=O)CCNS(=O)(=O)c2ccc3c(c2)CCN3C(=O)CC)c1,7.56%
15,Oc1ccc(-c2csc(Nc3ccccn3)n2)c(O)c1,13.3%
16,Fc1ccc(N/N=C2/CCSc3sccc32)c(F)c1,2.1%
17,CCOP(=O)(OCC)C(NC(=O)Nc1c(C)cc(C)cc1C)c1ccccc1 (centres unmarked),10.6%
18,Cn1c(SCC(=O)N2CCCC2)nnc1-c1ccc(S(=O)(=O)N2CCCC2)cc1,-0.72%
19,O=C(C(NS(=O)(=O)c1cccs1)c1ccccc1)N1CCN(c2ccccc2)CC1 (centres unmarked),-13.3%
20,Cc1ccc(C(=O)O)cc1S(=O)(=O)N1CCCC1,2.89%
21,COc1ccc(Cn2cnc3c(N)c(C)c(C)cc32)cc1,10.9%
22,O=C(NNC(=S)NC1CCCCC1)c1sc2ccccc2c1Cl,6.85%
23,Cc1ccccc1N=C1NC(=O)CS1,3.92%

row,Compound,"hERG current change (%, negative = inhibition) at 1uM"
1,COc1ccc(C)cc1NC(=O)CN1CCN(S(=O)(=O)c2ccc(C(C)C)cc2)CC1,4.65%
2,CCOc1ccc(OCC)c(NS(=O)(=O)c2ccc3c(c2)n(C)c(=O)c(=O)n3C)c1,-4.68%
3,Cl.O=C(O)c1ccc(CNCc2cccc(OCc3ccc(F)cc3)c2)cc1,19.4%
4,Cc1ccc(C(=O)OCC(=O)N(C)c2ccccc2)cc1C,9.54%
5,CN(CC(=O)NC(=O)NC(C)(C)C)CC(=O)Nc1ccccc1Cl,14.6%
6,COc1ccc(-c2noc(CNC(=O)c3ccoc3C)n2)cc1OC,17.8%
7,CN(C)N=Nc1ccc(S(N)(=O)=O)cc1,13.4%
8,O=C(O)/C=C/c1ccc(S(=O)(=O)Nc2cccnc2)cc1,18.1%
9,COCCNC(=O)c1cc2sccc2n1C,5.7%
10,O=C1c2ccccc2-c2onc3ccc(Oc4ccccc4)c1c23,-7.62%
11,CCSc1nnc(NC(=O)c2cccnc2)s1,5.98%
12,S=C1NCN(C2CCCCC2)CN1c1ccccc1,14%
13,Cn1c(=O)c2c(nc(Cl)n2CCOc2ccccc2)n(C)c1=O,14.8%
14,CCCCCn1c(C(Cc2ccccc2)NC(=O)COC)nc2ccccc21 (centres unmarked),-8.53%
15,CCOC(=O)c1cc(CC)sc1NC(=O)c1ccc2c(c1)OCCO2,5.44%
16,C/C=C/c1ccc(OCC(=O)Nc2ccncc2)c(OC)c1,-6.15%
17,O=C(NCc1ccco1)C1CCC(CNS(=O)(=O)c2cccc3cccnc23)CC1 (centres unmarked),15.6%
18,O=[N+]([O-])c1ccc(Oc2cccc(C(F)(F)F)c2)nc1,5.98%
19,CCOC(=O)C1CCCCN1Cc1cn[nH]c1-c1ccc(F)cc1F (centres unmarked),6.54%
20,COCCNc1nc(SCc2ccccc2)nc2sc3c(c12)CCC3,11.6%
21,O=C(c1ccccc1)c1ccc(OCCn2cnc3ccccc3c2=O)cc1,11%
22,COc1ccc(C(C)=O)cc1Cn1nnc(-c2ccccc2Br)n1,0.0382%
23,C=CCOn1c(=O)c(-c2ccc(OC)c(OC)c2)[n+]([O-])c2ccccc21,-13.3%

row,Compound,"hERG current change (%, negative = inhibition) at 1uM"
1,CCn1c(SCc2ccccc2)nc2c1c(=O)[nH]c(=O)n2C,12.2%
2,COc1ccc(-c2nonc2NC(=O)c2ccco2)cc1OC,17.3%
3,COc1cc2cc(C(=O)N3CCOCC3)cc(-c3ccc(C)cc3)c2cc1OC,9.39%
4,CCCCn1c(N)c(N(CCOC)C(=O)c2cccc(S(=O)(=O)N(C)c3ccccc3)c2)c(=O)[nH]c1=O,13.8%
5,COc1cccc(/C=N/n2c(-c3ccco3)nc3ccccc3c2=O)c1OC,0.657%
6,CCc1ccc(C2c3[nH]c4ccccc4c3CCN2C(=O)c2cc(C)nn2C)cc1 (centres unmarked),18.4%
7,Cc1ccccc1OCCSc1nnc(-c2ccncc2)n1C,-6.23%
8,O=C(N/N=C/C(Br)=C/c1ccccc1)c1ccccc1F,3.95%
9,COc1cc(C2C(C#N)=C(N)Oc3n[nH]c(-c4ccncc4)c32)cc(OC)c1OC (centres unmarked),2.96%
10,[N-]=[N+]=CC(=O)CCCN1C(=O)c2ccccc2C1=O,10.3%
11,CC(Oc1ccc(F)cc1)C(=O)Nc1nc(-c2ccccn2)cs1 (centres unmarked),-26%
12,COCC(=O)Nc1cc(C)c2c(=O)oc3ccccc3c2n1,3.9%
13,Cc1ccc(/C=C(\NC(=O)c2ccccc2)C(=O)OCc2ccccc2)cc1,14.8%
14,O=C(C1CCN(CCCc2ccccc2)CC1)N(CCc1ccccc1)Cc1ccccc1.O=C(O)C(=O)O,-75%
15,COc1ccc(CNC(=O)C(C)N(C)Cc2cccc(F)c2)cc1 (centres unmarked),-4.06%
16,O=C(Cc1ccccc1)Nc1ccccc1C(=O)N1CCCCC1,12.6%
17,CCc1ccc(CCC(=O)Nc2ccc(Br)cc2)o1,14.2%
18,COc1cc(/C=C/C(=O)O)cc(S(=O)(=O)Nc2ccc3nc(C)sc3c2)c1OC,23.4%
19,O=C(N/N=C/C=C/c1ccccc1)c1cnccn1,7.66%
20,COc1ccc2c(Cl)c(-c3nnc(SCC(=O)c4ccccc4)n3C)sc2c1,17.4%
21,CC(C)(C)OC(=O)NCCC(=O)N/N=C/c1ccc2nccnc2c1,13.2%
22,COc1cccc(-n2c(=O)c3ccccc3n(CC(=O)NCC3CCCO3)c2=O)c1 (centres unmarked),12.6%
23,Cc1nn(C)c(Cl)c1CN1CCCC(CO)(Cc2cccc(Cl)c2)C1 (centres unmarked),-22.8%

row,Compound,"hERG current change (%, negative = inhibition) at 1uM"
1,O=S(=O)(Nc1ccccc1)c1ccc(NS(=O)(=O)c2cccs2)cc1,-5.56%
2,CCCc1ccc(OCc2ccc(C(=O)O)o2)c(OC)c1,12.9%
3,Cc1ccc(C(=O)NNC(=S)NCC2CCCO2)cc1[N+](=O)[O-] (centres unmarked),-27.1%
4,COc1ccc2cc(C(=O)C3CCCN(C(=O)c4cccnc4)C3)ccc2c1 (centres unmarked),8.92%
5,COc1ccc(NC(=O)CCc2nnc3ccc(NCc4ccc5c(c4)OCO5)nn23)cc1,12%
6,O=C(COC(=O)CC1c2ccccc2CCN1S(=O)(=O)c1ccc(F)cc1)Nc1ccccc1 (centres unmarked),-0.444%
7,CSCCC1NC(=O)N(CC(=O)Nc2ccc(N3CCCCC3)cc2)C1=O (centres unmarked),0.969%
8,CCOc1cccc(CNCCO)c1OCc1ccc(Cl)cc1.Cl,-6.78%
9,Cn1c(=O)c2c(-c3ccccc3)n(CCCN3CCOCC3)cc2n(C)c1=O,9.17%
10,Cc1ccc(NC(=O)CS(=O)CC(=O)N(C2CCCC2)C(C)C(=O)NC2CCCCC2)cc1 (centres unmarked),4.21%
11,Cc1ccccc1S(=O)(=O)Cc1ccc(C(=O)N2CCN(c3ccc(F)cc3)CC2)o1,-2.64%
12,COC(/C=C/Nc1ccc(Cl)cc1)=C(C#N)C#N,-29.2%
13,CCn1cc(S(=O)(=O)c2ccc(C)cc2)c(=O)c2cc(OC)ccc21,11.1%
14,CN1c2ccc(Cl)cc2C(=O)NC1C1CC=CCC1 (centres unmarked),12.5%
15,CCOc1ccc(CNC(=O)CCCC(=O)n2nc(C)c3ccccc32)cc1,10.6%
16,Cc1nnc(N2C(=O)C(O)=C(C(=O)c3ccco3)C2c2ccc(C(C)C)cc2)s1 (centres unmarked),15.8%
17,CN(C)S(=O)(=O)c1ccc(C(=O)OCC(=O)NC(=O)NCc2ccccc2)cc1,1.71%
18,COc1cc(CCC(=O)Nc2nnc(C)s2)cc(OC)c1OC,15%
19,CC1CCCC(C)N1CCNC(=O)C1CCN(S(=O)(=O)N2CCCCC2)CC1 (centres unmarked),-1.87%
20,O=C(NCC1CCCN(C(=O)c2cscn2)C1)c1ccc(-c2ccccc2)cc1 (centres unmarked),5.36%
